Data taken from article PMC8006934, “C-Reactive Protein Enhances IgG-Mediated Cellular Destruction Through IgG-Fc Receptors in vitro” (Frontiers in Immunology, 2021).

Target: T1, C-reactive protein (native CRP from human fluid) (human, UniProt P02741 19-224)
T1 construct: C-reactive protein, human, native protein from human fluid; The SPR methods say only 'human CRP'; the source (Sigma-Aldrich) is named in the methods of the phagocytosis assay; also called human CRP; native human CRP; source: bought: Sigma-Aldrich (native CRP from human fluid)
T1 sequence (looked up): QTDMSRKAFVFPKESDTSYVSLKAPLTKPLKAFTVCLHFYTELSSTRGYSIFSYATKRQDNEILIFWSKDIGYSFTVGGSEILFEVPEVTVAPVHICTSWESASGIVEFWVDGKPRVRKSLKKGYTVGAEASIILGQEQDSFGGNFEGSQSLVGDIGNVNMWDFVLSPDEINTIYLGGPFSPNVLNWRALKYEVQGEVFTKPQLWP
Experiment: SPR; IBIS MX96 array; C-terminally biotinylated FcRs spotted at different densities (100–1 nM) on one SensEye G-streptavidin sensor, blocked with biotinylated BSA; CRP injected in 2-fold dilutions from 0.98 to 2,000 nM in 20 mM Tris, 280 mM NaCl, 5 mM CaCl2, pH 8.0; KD by equilibrium fitting to Rmax = 500
Conditions: both partners purified

binding result: binds
B1: FcγRIIIa-V158, human, C-terminally biotinylated (receptor)
chain: not shown
modifications: biotin, C-terminal
notes: FcγRIIIa (CD16a), human, polymorphic variant V158 (p.176Val), bought recombinant biotinylated protein; also called FcγRIIIa-p.176Val; source: bought: Sino Biological
